Assays:
[1] = target: T1, SNAP-GLP-1R in INS-1 832/3 GLP-1R−/− cells (Homo sapiens, UniProt P43220); test: SNAP-GLP-1R clustering by TR-FRET (HTRF); format: cell-based
[2] = target: T1, SNAP-GLP-1R in INS-1 832/3 GLP-1R−/− cells; test: TR-FRET ligand binding (equilibrium and kinetic)
[3] = target: T1, SNAP-GLP-1R in INS-1 832/3 GLP-1R−/− cells; test: FITC-ligand uptake by TR-FRET; format: cell-based

T1 sequence (P43220 24-463): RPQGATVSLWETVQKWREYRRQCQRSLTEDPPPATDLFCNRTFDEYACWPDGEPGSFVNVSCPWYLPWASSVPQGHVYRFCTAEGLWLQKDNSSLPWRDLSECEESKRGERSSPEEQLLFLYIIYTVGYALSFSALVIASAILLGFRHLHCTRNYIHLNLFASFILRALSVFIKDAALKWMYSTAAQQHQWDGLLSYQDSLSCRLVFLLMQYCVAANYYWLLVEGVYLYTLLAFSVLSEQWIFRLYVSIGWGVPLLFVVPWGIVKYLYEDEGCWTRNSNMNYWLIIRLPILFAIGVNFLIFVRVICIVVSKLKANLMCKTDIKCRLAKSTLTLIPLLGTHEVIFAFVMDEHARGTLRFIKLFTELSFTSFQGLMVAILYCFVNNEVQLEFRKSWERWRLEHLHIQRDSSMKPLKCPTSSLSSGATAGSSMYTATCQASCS

Molecule	SNAP-GLP-1R clustering, compound alone (in words) ([1]; BETP (10 μM) or exendin-phe1 (100 nM) alone)	effect on agonist dissociation (in words) ([2]; MβCD 10 mM, 45 min, exendin-4-K12-FITC)	effect on binding affinity of exendin-4-K12-FITC (in words) ([2]; MβCD pretreatment)	remaining ligand uptake at maximal MβCD (in words) ([3]; Fig 2G and 2H)	LogEC50 ([3]; Fig 2G, effect of MβCD concentration on uptake of exendin-4-K12-FITC, log of MβCD concentration (mM), n=5)	LogEC50 ([1]; Fig 2B, effect of MβCD concentration (45 min) on clustering induced by 100 nM exendin-4, log of MβCD concentration (mM), n=5)	effect on maximal exendin-4-induced clustering (in words) ([1]; MβCD pretreatment)
CC[S+]([O-])c1nc(-c2cccc(OCc3ccccc3)c2)cc(C(F)(F)F)n1 (stereo not shown) [BETP, 4-(3-benzyloxyphenyl)-2-ethylsulfinyl-6-(trifluoromethyl)pyrimidine]	marginal	–	–	–	–	–	–
methyl-β-cyclodextrin [MβCD]	–	faster agonist dissociation	reduced by MβCD in a dose-dependent manner	some remaining receptor-mediated agonist uptake detected even at maximal doses of MβCD	0.6	0.7	reduced maximal exendin-4-induced GLP-1R clustering

From publication PMC6716783, “Agonist-induced membrane nanodomain clustering drives GLP-1 receptor responses in pancreatic beta cells” (PLoS Biology, 2019)
